The other results are listed elsewhere or left out. These are noisy estimates, calculated here from bound and input reads.
biological target: T1, Pho4 (S. cerevisiae) (UniProt P07270); test: relative binding free energy (BET-seq); higher = weaker binding; conditions: reference: library average
T1 sequence: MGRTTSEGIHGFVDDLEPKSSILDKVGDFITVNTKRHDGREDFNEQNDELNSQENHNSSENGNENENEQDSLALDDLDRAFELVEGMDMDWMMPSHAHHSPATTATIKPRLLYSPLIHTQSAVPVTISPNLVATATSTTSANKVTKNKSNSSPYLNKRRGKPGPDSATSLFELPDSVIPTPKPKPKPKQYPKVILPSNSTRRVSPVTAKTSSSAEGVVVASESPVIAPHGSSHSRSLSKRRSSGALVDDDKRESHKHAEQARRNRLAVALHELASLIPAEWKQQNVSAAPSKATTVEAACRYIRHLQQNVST

| Sequence | relative binding free energy |
| --- | --- |
| GTGTGCACGTGACTTG | 0.14 kcal/mol |
| TGGGGCACGTGCCTTG | -0.16 kcal/mol |
| TGGTCCACGTGTTGCT | 0.01 kcal/mol |
| CACGGCACGTGGAGGT | 0.02 kcal/mol |
| ATTTCCACGTGTTTTA | -0.03 kcal/mol |
| GTTGACACGTGCGTGG | 0.14 kcal/mol |
| CGTTTCACGTGTGGTT | 0.32 kcal/mol |
| TGGGGCACGTGGTTTG | -0.13 kcal/mol |
| TTACGCACGTGATGTT | 0 kcal/mol |
| AGTCTCACGTGGGTAA | 0.18 kcal/mol |
| ATATGCACGTGTTAGC | 0.01 kcal/mol |
| TAAAGCACGTGGTTGG | -0.2 kcal/mol |
| GCCATCACGTGGGGGG | -0.1 kcal/mol |
| CGTATCACGTGGATTT | 0.28 kcal/mol |
| TGGGCCACGTGGGGGC | -0.19 kcal/mol |
| GCCATCACGTGGGGGT | -0.03 kcal/mol |
| GTAGACACGTGGTTCT | 0.09 kcal/mol |
| GGGGGCACGTGCGGAA | -0.2 kcal/mol |
| AAAAGCACGTGTTATT | 0.02 kcal/mol |
| GAGTGCACGTGGGTTC | -0.06 kcal/mol |
| GCTTTCACGTGTTTTG | 0.3 kcal/mol |
| TTTTCCACGTGGTCGG | -0.02 kcal/mol |
| CAAGTCACGTGGAGTG | 0.06 kcal/mol |

| Sequence | relative binding free energy |
| --- | --- |
| GAGGTCACGTGACGTG | 0.17 kcal/mol |
| CATGTCACGTGCTTGT | -0.09 kcal/mol |
| TGGGTCACGTGTAAAG | 0.07 kcal/mol |
| CTTGTCACGTGCGAGG | -0.03 kcal/mol |
| GGTTGCACGTGTATGG | 0.07 kcal/mol |
| AGGGCCACGTGCGGGT | -0.3 kcal/mol |
| ATGTGCACGTGTCTGG | -0.16 kcal/mol |
| GTCGTCACGTGGACGG | 0.13 kcal/mol |
| TGTGGCACGTGAAAGT | 0.11 kcal/mol |
| AGGTTCACGTGATGCT | 0.41 kcal/mol |
| TTATGCACGTGAGGGC | 0.2 kcal/mol |
| GTCGTCACGTGTCGGT | 0.13 kcal/mol |
| ACCGGCACGTGTGGGG | -0.15 kcal/mol |
| GATAGCACGTGGGTCG | -0.1 kcal/mol |
| GTTGTCACGTGCCAGT | 0.14 kcal/mol |
| GTTTGCACGTGAGGAC | 0.27 kcal/mol |
| GTTTACACGTGTCATA | 0.41 kcal/mol |
| CCGGGCACGTGGTGGT | -0.21 kcal/mol |
| GTGTGCACGTGCTTTT | -0.03 kcal/mol |
| CGGGACACGTGCGTGG | 0 kcal/mol |
| AGCGGCACGTGGGATT | -0.22 kcal/mol |
| TTTGGCACGTGTATGC | -0.08 kcal/mol |
| AAGATCACGTGGGCGA | 0.14 kcal/mol |

| Sequence | relative binding free energy |
| --- | --- |
| CATTGCACGTGTTGGA | 0 kcal/mol |
| CGATGCACGTGTGTAA | 0.06 kcal/mol |
| GGTGACACGTGAAGTA | 0.37 kcal/mol |
| GAGTGCACGTGAGAGC | 0.3 kcal/mol |
| TTGATCACGTGTTTGA | 0.1 kcal/mol |
| GCGGGCACGTGGTTGT | -0.13 kcal/mol |
| ATTGGCACGTGTCGCT | -0.1 kcal/mol |
| TAGTGCACGTGGCGGA | -0.14 kcal/mol |
| GGCGTCACGTGCAGGG | 0.05 kcal/mol |
| ATAATCACGTGAAGGA | 0.27 kcal/mol |
| ACGTTCACGTGTGAGG | 0.17 kcal/mol |
| TTTTACACGTGTGTGC | 0.15 kcal/mol |
| ATACTCACGTGTAAGG | 0.22 kcal/mol |
| AACGTCACGTGAGTTG | 0.24 kcal/mol |
| TCGCACACGTGTTGGT | 0.1 kcal/mol |
| GGTGGCACGTGAACGT | 0.13 kcal/mol |
| GTGATCACGTGGATGC | 0.19 kcal/mol |
| GGTTACACGTGGGTTC | 0.15 kcal/mol |
| GTAGTCACGTGATTCG | 0.18 kcal/mol |
| TGTGGCACGTGGACAG | -0.06 kcal/mol |
| TTTAGCACGTGCGCGG | -0.26 kcal/mol |
| ACTGGCACGTGCATGG | -0.12 kcal/mol |
| GTTTACACGTGGGTGA | -0.03 kcal/mol |

| Sequence | relative binding free energy |
| --- | --- |
| GATGGCACGTGGTGTC | -0.13 kcal/mol |
| GAAAACACGTGGTTGT | 0.04 kcal/mol |
| GTGGGCACGTGGTGCC | -0.12 kcal/mol |
| GCGAGCACGTGATGTG | 0.19 kcal/mol |
| GGGAGCACGTGTGGAG | -0.05 kcal/mol |
| ATATTCACGTGAGGCG | 0.37 kcal/mol |
| TTCGTCACGTGCGTTA | -0.03 kcal/mol |
| GTATGCACGTGTTTGA | 0.04 kcal/mol |
| ATTCGCACGTGTAAGT | 0.01 kcal/mol |
| TGTTGCACGTGGCTCT | -0.15 kcal/mol |
| GTATGCACGTGGCAGG | -0.03 kcal/mol |
| CTGTGCACGTGGGGGT | -0.2 kcal/mol |
| CTTTGCACGTGTCAGT | 0.01 kcal/mol |
| GCTAACACGTGTGTGA | 0.12 kcal/mol |
| CTTTGCACGTGGGGTT | -0.15 kcal/mol |
| TTTAGCACGTGAATGC | 0.25 kcal/mol |
| CATGGCACGTGTTGGA | -0.06 kcal/mol |
| TATTACACGTGACGGT | 0.14 kcal/mol |
| TTCATCACGTGGGCGT | -0.01 kcal/mol |
| TTTATCACGTGAATGG | 0.39 kcal/mol |
| TTTGCCACGTGGGTAT | -0.28 kcal/mol |
| AGCGACACGTGGGTTA | -0.08 kcal/mol |
| GGTGGCACGTGCTTGG | -0.04 kcal/mol |

| Sequence | relative binding free energy |
| --- | --- |
| TGTTACACGTGGTCGG | -0.02 kcal/mol |
| GTGATCACGTGGAGAT | 0.21 kcal/mol |
| ACTGGCACGTGGTGCT | -0.2 kcal/mol |
| TACTCCACGTGGGTGT | -0.17 kcal/mol |
| CAGTGCACGTGTAGTT | -0.13 kcal/mol |
| TAGCGCACGTGGTTAG | -0.3 kcal/mol |
| TTAGGCACGTGATAAT | 0.01 kcal/mol |
| ATCATCACGTGTAGTG | 0.01 kcal/mol |
| TATCTCACGTGAGGGC | 0.42 kcal/mol |
| TATAACACGTGTCAGG | 0.19 kcal/mol |
| AAGGTCACGTGGGTCC | 0.03 kcal/mol |
| AGAGACACGTGGAGGT | 0.02 kcal/mol |
| ATAGTCACGTGGTATT | 0.04 kcal/mol |
| TGTTTCACGTGCAATA | 0.11 kcal/mol |
| CGGCACACGTGGGGGT | -0.14 kcal/mol |
| GTGGTCACGTGAGTGA | 0.4 kcal/mol |
| TCGTACACGTGGATGA | 0.16 kcal/mol |
| ATCGGCACGTGAGGGA | 0.13 kcal/mol |
| CAGAGCACGTGTTGTA | -0.07 kcal/mol |
| TAATACACGTGAGGTT | 0.24 kcal/mol |
| GCGGACACGTGGGGGT | -0.12 kcal/mol |
| TTGGACACGTGTTGTA | 0 kcal/mol |
| CGTACCACGTGGTGGT | -0.21 kcal/mol |

From the BET-seq Pho4 binding data (Le et al. 2018)
